Source: PubChem BioAssay AID651820 (National Center for Advancing Translational Sciences (NCATS), 2012)
The whole screen tested about 340,000 compounds, of which about 12,000 (3.5%) were called active. Inconclusive means that the source gave no clear call. Such entries were picked first, then a sample of the others. The call rests on the fitted dose curve; in most records, active means well fitted inhibition curve with a large enough effect; inconclusive means small, poorly fitted or top-dose-only effect, or another doubt; inactive means no such curve, though single readings can be large or run the other way. No potency is given beside an inconclusive call; the fits are too rough.

Assay: qHTS Assay for Inhibitors of Hepatitis C Virus (HCV)
Details: Huh7.5.1 HCVcc-Cre (HCVcc is cell-culture hepatitis C virus) infection, luciferase reporter, 44 h; activity change, negative = inhibition: at 41.8 µM (top of the series) unless noted
Outline: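 Cells seeded at 1,000/well and cultured 4 h, then compounds added followed by HCVcc-Cre virus (~0.5 moi). After 44 h further culture, luciferase substrate was added, plates held 15 min at room temperature, and luminescence read for 15 sec.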
On the % scale 0 is the no-effect control and ±100 the full control effect; potency means the concentration at half of the fitted maximal effect; tags describe the fitted curve by direction and shape.

Structure (SMILES)	Potency	activity change, negative = inhibition
O=C(NCCCNc1ccc(C(F)(F)F)cc1[N+](=O)[O-])c1ccc(Cl)cc1	inconclusive [inhibitor, partial curve, poor fit]	–
CCN(CC)c1ncnc2sc(C(=O)N3CCN(c4ccccc4)CC3)c(C)c12	inconclusive [inhibitor, partial curve]	–
COc1cc(C(=O)NCC2CCCCC2)cc(OC)c1OC	–	inactive: 26.8%
CCc1ccc(CN(C)C(=O)c2ccc3c(c2)OCCO3)cc1	–	inactive: -11.5%
O=C(Nc1ccc2c(c1)oc1ccccc12)c1ccc(Br)o1	active: 17.8 µM	–
COc1ccc(S(=O)(=O)N2CCCCC2)cc1NC(=O)c1cc(C)on1	–	inactive: 0.961%
CCOc1ccccc1OC(=O)c1ccco1	–	inactive: 22.1%
Cc1cccc2cc(C#N)c(NCCNC(=S)NCCCN3CCOCC3)nc12	active: 11.2 µM	–
NS(=O)(=O)c1ccc(Nc2nc(-c3cccc([N+](=O)[O-])c3)cs2)cc1	active: 25.1 µM	–
Cc1ccc(N(C(C)C(=O)N2CCN(Cc3ccccc3)CC2)S(C)(=O)=O)cc1 (stereo not given)	inconclusive [inhibitor, partial curve]	–
N#CC1(NC(=O)COC(=O)c2cc([N+](=O)[O-])ccc2N2CCCC2)CCCCC1	inconclusive [inhibitor, partial curve, poor fit]	–
COc1ccc(-c2nnc(SC(C(=O)c3c[nH]c4ccccc34)c3ccccc3)n2N)cc1OC (stereo not given)	inconclusive [inhibitor, single point]	–
CCc1ccc(CN2CCCC(C(=O)Nc3ccccc3-c3ccc(OC)cc3)C2)o1 (stereo not given)	inconclusive [inhibitor, single point]	–
CCc1ccccc1NC(=S)NCC1CCN(c2ccc(OC)cc2)C1 (stereo not given)	inconclusive [inhibitor, single point]	–
CCC(=O)N1CCc2cc(Br)cc(S(=O)(=O)NCCCN(C)Cc3ccccc3)c21	–	inactive: 22.9%
COc1ccc([N+](=O)[O-])cc1NC(=O)C(C)N(C)Cc1cccc(OC)c1OC (stereo not given)	active: 35.5 µM	–
O=C(c1ccc(CN2CCOCC2)cc1)N1CCC(Cc2ccccc2)CC1	inconclusive [inhibitor, partial curve, poor fit]	–
COc1ccc2c(C)c(CC(=O)N3CCN(C(=O)C4COc5ccccc5O4)CC3)c(=O)oc2c1C (stereo not given)	inconclusive [inhibitor, partial curve]	–
COc1cc(/C=C/C(=O)OCC(=O)N2CCc3ccccc3C2)ccc1O	inconclusive [inhibitor, single point]	–
CC(C)Sc1nnc(SCC(=O)NCCCN2CCCC2=O)s1	–	inactive: 38%
Cc1nc(N2CCN(C(=O)c3ccco3)CC2)c2c3c(sc2n1)CC(C)CC3 (stereo not given)	active: 12.6 µM	–
CCOc1ccc(C(=O)Nc2ccc(NC(=O)c3cccs3)cc2)cc1[N+](=O)[O-]	inconclusive [inhibitor, partial curve]	–
CC(=O)c1ccc(NC(=O)c2ccc3c(=O)n4c(nc3c2)CCCCC4)cc1	inconclusive [inhibitor, partial curve]	–
Cc1onc(C(=O)Nc2ccc(OC(F)(F)F)cc2)c1[N+](=O)[O-]	–	inactive: -19.8%

Structure (SMILES)	Potency	activity change, negative = inhibition
Cc1c(/C=N\NC(=O)C2COc3ccccc3O2)c2ccccc2n1C (stereo not given)	inconclusive [inhibitor, partial curve]	–
Cc1ccc(C)c(N2CCN(C(=O)C34CC5CC(C3)CC(n3nnc(C)n3)(C5)C4)CC2)c1	active: 17.8 µM	–
CCOC(=O)C1CCCN(C(=O)c2ccc(-c3ccc([N+](=O)[O-])cc3)o2)C1 (stereo not given)	inconclusive [inhibitor, single point]	–
CC(C)=CCc1cc(-c2oc3cc(O)cc(O)c3c(=O)c2O)ccc1O	inconclusive [inhibitor, partial curve]	–
O=C(CC1CCCCC1)NCc1cn2ccsc2n1	inconclusive [inhibitor, single point]	–
COc1ccc(N2CC(O)=C(c3nc4ccccc4s3)C2=N)c(OC)c1	inconclusive [inhibitor, single point]	–
O=c1c2ccccc2[nH]c(=S)n1CCCN1CCC(Cc2ccccc2)CC1	inconclusive [inhibitor, full curve]	–
COc1ccc(-c2cc(C(F)(F)F)nc(SCCC(=O)N3CCCC3)n2)cc1	inconclusive [inhibitor, partial curve]	–
COc1ccc(/C(N)=N/OC(=O)c2ccc3c(c2)OCO3)cc1OC	active: 8.91 µM	–
N=C1N(c2ccccc2)C(=S)C(=Nc2ccccc2)N1c1ccccc1	inconclusive [inhibitor, single point]	–
COc1ccccc1NC(=O)c1ccc(Cl)c(S(=O)(=O)NCc2ccco2)c1	inconclusive [inhibitor, partial curve]	–
O=C(CSc1nc2ncccc2[nH]1)NCCc1ccccc1	–	inactive: 3.63%
CCc1ccc(NC(=O)NCC2CCN(Cc3cccc(Cl)c3)CC2)cc1	inconclusive [inhibitor, single point]	–
CCN(C(=O)c1ccco1)c1nc(-c2ccc(OC)cc2)cs1	active: 22.4 µM	–
CS(=O)(=O)c1ccc(Cl)c(NC(=O)C2CCN(S(=O)(=O)c3cccs3)CC2)c1	–	inactive: -22.8%
Cc1ccc(CNC(=S)NC2CCC(C(C)(C)C)CC2)cc1 (stereo not given)	inconclusive [inhibitor, single point]	–
COc1ccc(-n2nnc3c(=O)n(Cc4cc(C)ccc4C)cnc32)cc1	inconclusive [inhibitor, full curve]	–
CC(C)(C)OC(=O)CNC(=O)c1[nH]cnc1C(=O)Nc1ccc(CNC(=O)OC(C)(C)C)cc1	inconclusive [inhibitor, single point]	–
O=C(Nc1ccc(N2CCOCC2)cc1)c1cccc2ccccc12	inconclusive [inhibitor, partial curve, poor fit]	–
CC(NC(=O)c1cc(S(=O)(=O)N2CCOCC2)cn1C)c1ccccc1 (stereo not given)	–	inactive: 24.5%
Cc1c(C#N)c(NC(=O)C(C)C)n(Cc2ccccc2)c1C	inconclusive [inhibitor, single point]	–
COc1cccc(NC(=O)CCC2CCN(C(=O)c3cccc(NC(C)=O)c3)CC2)c1	inconclusive [inhibitor, partial curve]	–
COc1cccc(CC(=O)Nc2cc(S(=O)(=O)N3CCCCC3)ccc2C)c1	inconclusive [inhibitor, single point]	–
COc1ccc(-c2ccccc2)c2oc(-c3ccco3)cc(=O)c12	inconclusive [inhibitor, full curve]	–

Structure (SMILES)	Potency	activity change, negative = inhibition
COc1ccccc1N1CCN(C(=O)c2cc(-c3ccc4c(c3)OCO4)on2)CC1	inconclusive [inhibitor, partial curve]	–
O=C1CC(c2ccccc2)Sc2nc3ccccc3n21 (stereo not given)	–	inactive: 4.91%
CC(C)c1cc(C(=O)N2CCCC(N3CCN(c4ccc(F)cc4)CC3)C2)no1 (stereo not given)	inconclusive [inhibitor, full curve]	–
CNC1(C)[C@H]2CC[C@H](C2)C1(C)C (stereo not given in full)	–	inactive: -10.3%
COC(=O)COc1ccc(S(=O)(=O)NCc2ccco2)cc1	–	inactive: 27.5%
CCc1ccccc1N1CC(C(=O)Nc2cc(S(=O)(=O)N3CCCC3)ccc2Cl)CC1=O (stereo not given)	active: 11.2 µM	–
O=C(CSc1n[nH]c(=O)n1C1CC1)N1N=C(c2ccc(Cl)cc2)CC1c1ccco1 (stereo not given)	inconclusive [inhibitor, single point]	–
COc1ccc(CNc2ncnc3cc(OC)c(OC)cc23)cc1OC	–	inactive: -8.71%
CC(C)(C)NC(=S)Nc1cccc(C(F)(F)F)c1	inconclusive [inhibitor, single point]	–
Cc1cccc(CN2CCC(CNC(=O)Nc3ccc(F)c(Cl)c3)CC2)c1	inconclusive [inhibitor, partial curve]	–
CC(NC(=O)Cc1cccs1)C(c1cccs1)N1CCN(c2ccccc2F)CC1 (stereo not given)	inconclusive [inhibitor, full curve, poor fit]	–
COc1ccc2c(c1)OC[C@H]1[C@H]2N2C(=O)CN(Cc3ccc(F)cc3)C(=O)[C@@]2(C)[C@H]1c1ccccc1	inconclusive [inhibitor, partial curve]	–
CCc1cccc(C)c1NC(=O)C1CN(S(=O)(=O)c2ccccc2)CCN1S(=O)(=O)c1ccccc1 (stereo not given)	inconclusive [inhibitor, single point]	–
COc1ccc(NC(=O)N(Cc2cc3cc(OC)c(OC)cc3[nH]c2=O)CC2CCCO2)cc1 (stereo not given)	–	inactive: 4.78%
COC(=O)C1=C(c2cc3ccccc3s2)C[C@@H]2CC[C@H]1N2C(=O)NCC1CC1	inconclusive [inhibitor, partial curve]	–
CCOc1ccc(-n2cc(-c3ccccc3)c3c(N4CCOCC4)ncnc32)cc1	active: 11.2 µM	–
N#Cc1cccc(C(=O)N(CCc2ccccc2)Cc2cccs2)c1	–	inactive: -13.9%
Cc1cc2oc(=O)cc(CN(C)Cc3ccccc3)c2cc1C(C)C	active: 8.91 µM	–
O=C1C2CCCC1C(N1CCCCC1)CC2 (stereo not given)	–	inactive: 6.03%
CC1C(=O)N2CCCc3cc(NC(=O)c4ccccc4Br)cc1c32 (stereo not given)	inconclusive [inhibitor, single point]	–
CCn1c(SCC(=O)Nc2ccc3[nH]c(=O)[nH]c3c2)nc2ccccc21	–	inactive: -15.1%
O=C(N/N=C/c1cn(-c2cccs2)nc1-c1ccccc1)c1ccccc1O	inconclusive [inhibitor, partial curve]	–
